B1: tRNA (parent)
chain: CUCUCGGUAGCCAAGUUGGUUUAAGGCGCAAGACUUUAAUUUAUCACUACGAAAUCUUGAGAUCGGGCGUUCGACUCGCCCCCGGGAGAUUUUUUCCUCGAGCAA

Variants at the background level are over-represented here.

The series covers variants of B1. In words: nonsense suppression (GFP-seq) (ratio to wild type); higher = more function; SUP4oc tRNA, yeast GFP reporter sort-seq. An outline of the steps: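 Yeast carrying genome-integrated SUP4oc tRNA variants from a library with ~3% random mutations were grown in raffinose/galactose medium with 80 mg/L adenine. Each strain also carried a galactose-driven GFP ochre reporter and RFP. Cells were sorted into GFP/RFP bins, and each bin was Illumina-sequenced (phred ≥30). Nonsense suppression (GFPSEQ) is the bin median GFP/RFP, weighted by each variant's estimated cell share per bin, relative to wild-type SUP4oc; variants needed ≥100 reads and ≥30 cells.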
With CUCUCGGUAGCCAAGUUGGUUUAAUGCGCAAGACUUUAAUUUAUCACUACGAAAUCUUGAUAUCGGGCGUCCGACUCGCCCCCGGGAGAUUUUUUCCUCGAGCAA [G25U G61U U71C], the nonsense suppression is not above 0.026. With CUCUCGGUAGCCAUGUUGGUUUAAGGCGCAAAACUUUAAUUUAUCACUACGAAAUCUUGAGAUCGGGCGUUCGACUCGCCCCCGGGAGAUUUUUUCCUCGAGCAA [A14U G32A] the figure was not above 0.026.

For CUCUCGGUAGCCAAGUUGGUUUAAGGCGCAAGACUUUAAUUUAUCACUACGAAAUCUUGAGAUCGGGCGUUCGAUUCCCCGCCGGGAGAUUUUUUCCUCGAGCAA [C75U G78C C81G], the nonsense suppression was not above 0.026. For the variant CUCUCGGUAGCCAAGUUGGUUUAAGGCGCAAGACUUUAAUUUAUCACUACGAAAUCUUGAGAUCGGGCGUUCGACUUGACCCAGGGAGAUUUUUUCCUCGAGCAA [C77U C79A C83A], the nonsense suppression was not above 0.026.

As for CUCUCGGUAGCCAAGUGGGUUUAAGGCGCUAGACUUUAAUUUAUCACUACGAAAUCUUGAGAUCGGGCGUUCGACUCUCCCCCGGGAGAUUUUUUCCUCGAGCAA [U17G A30U G78U], the nonsense suppression is not above 0.026. Turning to CUCUCGGUAGCCAAGUGGGUUUAAGGCGCAAUACUUUAAUUUAUCACUACGAAAUCUUGAGAUCGGGCCUUCGACUCGCCCCCGCGAGAUUUUUUCCUCGAGCAA [U17G G32U G69C G85C], the nonsense suppression is not above 0.026.

With CUCUCGGUAGCCAAGUUGGUUUAAGUCGCAAGACUUUAAUUUAUCACUACGAAAUCUUGAGAUGGGCCGUUCGACUCACCCCCGGGAGAUUUUUUCCUCGAGCAA [G26U C64G G67C G78A], the nonsense suppression was not above 0.026. With CUCUUGGUAGCCAAGUUGGUUUAAGGCGCAAGACUUUAAUUUAUCACUACGAAAUCUUGAGAUCGGGCGUUCGACUCGCCCCCGGGAAAUUUUUUCCUCGAGCAA [C5U G88A], the nonsense suppression is not above 0.026. Take CUCUCGGUAGCUAAGUUGGUGUAAGGCGCAAGACUUUAAUUUAUCACUACGAAAUCUUGAGAUCGGGCGGUCGACUCGCCCCCGGGAGAUUUUUUCCUCGAGCAA [C12U U21G U70G]: the nonsense suppression is not above 0.026. In the case of CUCUCGGUAGCCGAGUUGGUUUAAGGCGUAAAACUUUAAUUUAUCACUACGAAAUCUUGAGAUCGAGCGUUCGACUCGCCCCGGGGAGAUUUUUUCCUCGAGCAA [A13G C29U G32A G66A C83G], the nonsense suppression was not above 0.026.

Consider CUCUCGGUAGCCAAGUUUGUUUAAGGCGCAAGAUUUUAAUUUAUCACUACGAAAUCUUGAGAUCGGGCGUUCGACUCGCCCCCGGGAGGUUUUUUCCUCGAGCAA [G18U C34U A89G], for which the nonsense suppression is not above 0.026. With UUCUCGGUAGCCAAGUUGCUUUAAGGCGCAAGACUUUAAUUUAUCACUACGAAAUGUUGAGAUCGGGCGUUCGACUCGCCCCCGGGAGAUUUUUUCCUCGAGCAA [C1U G19C C56G] the figure was not above 0.026; with CUCUCGGUAGCCAAGUUGGUUUGCGGCGCAAGAUUUUAAUUUAUCACUACGAAAUCUUGAGAUCGGGCGUUAGACUCGCCCCCGGGAGUUUUUUUCCUCGAGCAA [A23G A24C C34U C72A A89U], not above 0.026. Take CUCUCGGUAGCGAAGUUGGUUUAAGGCGCAAGACUUUAAUUUAUCACUACGAAAUCUUGAGAUCGGGCGAUCGACUCGCCCCCGGGAGAUUUUUUCCUCGAGCAA [C12G U70A]: the nonsense suppression is not above 0.026. With CUCUAGGUAGCCAAGUUGGUUUAAAGCUCAAGACUUUAAUUUAUCACUACGAAAUCUUCAGAUCGGGCGUUCGACUCGCCGCCGGGAGAUUUUUUCCUCGAGCAA [C5A G25A G28U G59C C81G] the figure was not above 0.026. With CUCUCGGUAGCCAAGUUGGUUUAGGGCGCAAGACUUUAAUUUAUCACUACGAAAUCUAGAGAUCGGGCGUUCGACUCGCCCCCGGGCGAUUUUUUCCUCGAGCAA [A24G U58A A87C] the figure was not above 0.026; with CUCUCGGUAGCCAAGUUGGUUCAAGGCGCAAGACUUUAAUUUAUCACUACGAAAUCUUGAGAUCGGGCUUUCGACUCGCCCCCGGGAGAUUUUUUCCUCGAGCAA [U22C G69U], not above 0.026; with CUCUCGGUAGCCAAGUUGGGUUAAGGCGCAAGACUUUAAUUUAUCACUACGAAAUCUUGAUAUCGGGCGUUCGACUCGCCCCCGGGAGAUUUUUUCCUCGAGCAA [U20G G61U], 0.874.

In the case of CUCUCGGUAGCCAAGUUGGUUUAAGGCGCAAGACUUUAAUUUAUCACUACGAAAUCUUGCUAUCGGGCGUUCGACUCGUCCCCGGGAGAUUUUUUCCUCGAGCAA [A60C G61U C79U], the nonsense suppression is not above 0.026.

On to CUCUCGGUAGCCAAGUUGGUUUAAGGUGCAAGACUUUAAUUUAUCACUACGAAAUCUUGAGAUCGGGCGUUCGACUAGCCCCCGGGAGAUUUUUUCCUCGAGCAA [C27U C77A], for which the nonsense suppression was not above 0.026.

For the variant CUCUCGGUAGCCAAGUUGGUUUAAGGCGCAAGACUUUAAUUUAUCACUACGAAAUCUUGAGAACGGGCGUUCGACACGCGCCCGGGAGAUUUUUUCCUCGAGCAA [U63A U76A C80G], the nonsense suppression is not above 0.026. Regarding CUCUCAGUAGCCAACUUGGUUUAAGGCGCAAGACUUUAAUUUAUCACUACGAAAUCUUGAGAUCGGGCGUUCGACUCGCCCCCGGGAGAUUUUUUCCUCGAGCAA [G6A G15C], the nonsense suppression is not above 0.026. For the variant CUCUCGUAAGCCAAGUUGGUUUAAGGCGCAAGACUUUAAUUUAUCACUACGAAAUCUUGAGAUCGUGCGUUCGACUCGCACCCGGUAGAUUUUUUCCUCGAGCAA [G7U U8A G66U C80A G86U], the nonsense suppression is not above 0.026. With GUCUCGGUAGCCAAGUUGGUUUAAGGCGCAAGACUUUAAUUUAUCACUACGAAAUCUUGAGAUCGGGCGUUCGACUCGCCCCCGGUAGAUUUUUUCCUCGAGCAA [C1G G86U] the figure was not above 0.026.

As for CUCUCGGUAGCAAAGUUGGUUUAAGGCGCAAGACUUUAAUUUAUCACUACGAAAUCUUGAGAUCGGACGUUUGACUCGCCCCCGGGAGAUUUUUUCCUCGAGCAA [C12A G67A C72U], the nonsense suppression was not above 0.026. With CUCUCGGUACCCAAGUUGGUUUAAGCCGAAAGACUUUAAUUUAUCACUACGAAAUCUUGAGAUCGGGCGUUCGACUCGCCCCCGGGAGAUUUUUUCCUCGAGCAA [G10C G26C C29A] the figure was not above 0.026; with CUCUCGUUAGCCAAGUUGGUUUAAGGCGCAAGACUUUAAUUUAUCACUACGAAAUCUUGAGAUCGGGCGCUCGACUCGCCCCCGGGAGAUUUUUUCCUCGAGCAA [G7U U70C], not above 0.026.

These data come from the RNAGym collection of RNA variant scans (doi:10.1101/gad.245936.114).
